From US20180312819A1 (AP BIOSCIENCES, published 2018)

What was measured:
VEGF165 (293-VE) = target: T1, VEGF165 (293-VE) (UniProt P15692-4 27-191); assay: solution binding: VEGF165 incubated 45 min at 37 C with titrated ACVP-1, free VEGF measured by ELISA (Human VEGF DuoSet kit)
T1 construct: the UniProt canonical entry is a longer isoform; also called VEGF-A
T1 sequence (looked up): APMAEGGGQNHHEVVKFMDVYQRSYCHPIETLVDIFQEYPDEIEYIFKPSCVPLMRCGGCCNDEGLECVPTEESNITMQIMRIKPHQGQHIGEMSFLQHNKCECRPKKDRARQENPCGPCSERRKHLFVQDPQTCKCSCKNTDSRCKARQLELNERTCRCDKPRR
Protocol: After incubation, free VEGF was detected using the Human VEGF DuoSet ELISA Development Kit (R&D Systems Catalog No. DY293B) according to the manufacturer's instructions. The data was analyzed by sigmoidal curve fitting using Prism 4.

VEGF-A (R&D Systems) [1] = target: T2, VEGF-A (R&D Systems) (UniProt P15692-4 27-191, limits assumed); assay: solution binding: 5 pM VEGF-A incubated overnight at 4 C with 0-100 pM ACVP-1, free VEGF measured by sandwich ELISA (Human VEGF Quantikine kit); experiment 2 of 2
T2 sequence (looked up): T1 sequence (looked up)

VEGF-A (R&D Systems) [2] = target: T2, VEGF-A (R&D Systems); assay: direct ELISA, VEGF-A coated on plate, anti-Fc HRP detection
Protocol: The data was analyzed by sigmoidal curve fitting using Prism 4.

VEGF-A (R&D Systems) [3] = target: T2, VEGF-A (R&D Systems); assay: solution binding: 5 pM VEGF-A incubated overnight at 4 C with 0-100 pM ACVP-1, free VEGF measured by sandwich ELISA (Human VEGF Quantikine kit); experiment 1 of 2

EC50 (VEGF165 (293-VE)): 16.5 pM
EC50 (VEGF-A (R&D Systems) [1]): 3.42 pM
EC50 (VEGF-A (R&D Systems) [2]): 220 pM
EC50 (VEGF-A (R&D Systems) [3]): 3.44 pM
B1: ACVP-1 (bispecific anti-complement/VEGF fusion protein: VID - human IgG1 Fc - G6 linker - CID-KYDN) (Fc fusion)
chain: GRPFVEMYSEIPEIIHMTEGRELVIPCRVTSPNITVTLKKFPLDTLIPDGKRIIWDSRKGFIISNATYKEIGLLTCEATVNGHLYKTNYLTHRQTNTIIDVVLSPSHGIELSVGEKLVLNCTARTELNVGIDFNWEYPSSKHQHKKLVNRDLKTQSGSEMKKFLSTLTIDGVTRSDQGLYTCAASSGLMTKKNSTFVRVHEK[human IgG1 Fc cut from this listing][about 200 residues cut from this listing]
notes: Expressed in HEK293 with the SP2 signal peptide, purified on Protein A; also called bispecific fusion protein ACVP-1
